Laboratory results taken from PubChem BioAssay AID1345083 (National Center for Advancing Translational Sciences (NCATS), 2018).
Hit rate of the full screen: of about 94,000 compounds, about 6,200 (6.6%) were called active. Inconclusive results, whose numbers are uncertain, are shown with a selection of clear calls. Calls come from the whole dose curve; as a rule, active = well fitted inhibition curve with a large enough effect; inconclusive = small, poorly fitted or top-dose-only effect; inactive = flat fitted curve, though single readings scatter. A potency beside an inconclusive call is a rough fit, not a confirmed value.

Test: Cytotoxic Profiling in HEK 293 Cell Line of Diverse Libraries Using Quantitative High-Throughput Screening; note: nearly all actives have a fitted effect of over 60% in size
Details: HEK 293 viability, ATP luminescence (CellTiter-Glo), 48-72 h; activity change, negative = cytotoxicity: at 115 µM (top of the series) unless noted; series mostly up to 115 µM
Summary of the method: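 qHTS cytotoxicity; HEK 293, 250 cells/well; compound pinned; 48 or 72 hr, 37 degree Celsius, 5% CO2, 95% humidity; CellTiter-Glo, 10 min RT; luminescence (ATP).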
% is set by controls: 0 for no effect and ±100 for the full control effect; potency is the fitted concentration of half-maximal effect; tags give direction and shape of the fitted curve.

| Compound | activity change, negative = cytotoxicity | Potency | outcome |
| --- | --- | --- | --- |
| CC(C)NC(=O)Cc1cccn1-c1ccc(F)cc1 | inactive: -6.79% |  |  |
| COc1ccc2[nH]c3c(c2c1)CCN(C)C31CCN(C(=O)c2ccoc2)CC1 |  | inconclusive: 44.7 µM [inhibitor, partial curve] |  |
| O=c1[nH]c(C2CCCN(CC3CCCC3)C2)nc2ccc(F)cc12 (stereo not given) |  | active: 31.6 µM |  |
| COc1ccc(Nc2ccnc(N3CCC(C(=O)NCc4ccc(F)cc4)CC3)n2)cc1 |  | inconclusive: 44.7 µM [inhibitor, partial curve, poor fit] |  |
| COCC1CCN(C(=O)c2ccc3oc(-c4ccc(C(F)(F)F)cc4)nc3c2)C1 (stereo not given) |  | inconclusive: 56.2 µM [inhibitor, partial curve, poor fit] |  |
| Cc1ccc(NC(=O)N2CCN(c3nnnn3-c3cccc(C(F)(F)F)c3)CC2)cc1F |  | inconclusive: 50.1 µM [inhibitor, partial curve, poor fit] |  |
| CCCCCC(=O)N1CC[C@@H](CC(=O)NCc2cccs2)[C@@H](CC)C1 |  | inconclusive: 70.8 µM [inhibitor, partial curve, poor fit] |  |
| COCCNC(=O)c1ccc2c(c1)N(C)C(CC(=O)NCc1ccon1)CO2 (stereo not given) | inactive: -21.2% |  |  |
| O=C(NC1CCCC1)c1cccc2c1CCN2S(=O)(=O)c1ccccc1F |  | inconclusive: 50.1 µM [inhibitor, partial curve, poor fit] |  |
| O=C(Cc1cccc(Cl)c1)N1CCC(n2cc(-c3nc(-c4ccccc4)no3)nn2)C1 (stereo not given) |  | inconclusive: 50.1 µM [inhibitor, partial curve, poor fit] |  |
| CCN1c2cc(C(N)=O)ccc2C(=O)N2CCCCC21 (stereo not given) |  | inconclusive: 50.1 µM [inhibitor, partial curve, poor fit] |  |
| CC(=O)Oc1c(-c2ccc(NC(=O)c3ccco3)cc2)c(C2CC2)nn1-c1cccc(C)c1 |  | inconclusive: 50.1 µM [inhibitor, partial curve, poor fit] |  |
| CCOC(=O)CN1C(=O)CN(C(=O)Cc2ccccc2)CCC(OC)c2ccccc21 (stereo not given) | inactive: 2.09% |  |  |
| Cc1ccc(C(=O)N2CCC3(CC2)CC(N(Cc2ccccc2)C2CC2)CCO3)cc1F (stereo not given) |  | active: 44.7 µM |  |
| O=C(c1cnccn1)N1CCCC1c1noc(CO)n1 (stereo not given) | inactive: 0.329% |  |  |
| CCn1nc(CC(C)C)cc1C(=O)N(C)Cc1cccc(-n2cccn2)c1 |  | active: 50.1 µM |  |
| CCc1n[nH]c(CC2CCN(C(=O)COc3ccc(F)cc3)CC2)n1 |  |  | inactive |
| CC(=O)Nc1ccc(CC(=O)N2CCCC(Cc3nncn3CC3CC3)C2)cc1 (stereo not given) |  | inconclusive: 89.1 µM [inhibitor, partial curve, poor fit] |  |
| CC(=O)N1CCC(=O)N(CC2CC2)Cc2cc3c(cc21)OCO3 |  | inconclusive: 89.1 µM [inhibitor, single point] |  |
| Cc1nn(-c2cccc(Br)c2)c(C)c1[C@@H]1C=C[C@@H](NS(=O)(=O)c2ccccc2)C1 |  | active: 44.7 µM |  |
| CC(C)NC(=O)N1Cc2[nH]cnc2C[C@H]1c1nc(-c2ccccc2)no1 |  |  | inactive [at 172 µM] |
| CCC(CC)NC(=O)C1CCN(C(=O)c2ncn3c2COC(c2ccc(F)cc2)C3)CC1 (stereo not given) | inactive: -13.7% |  |  |

| Compound | activity change, negative = cytotoxicity | Potency | outcome |
| --- | --- | --- | --- |
| N#Cc1ccc(C(=O)N2CCN(c3cc(-c4ccc(Cl)cc4)[nH]n3)CC2)cc1 |  | inconclusive: 35.5 µM [inhibitor, partial curve, poor fit] |  |
| O=C1CCN(C(=O)c2ccc3ccccc3n2)CCCC(CO)CCN1 (stereo not given) | inactive: -4.43% |  |  |
| CN1CC2(CCCN(CC3CC3)C2)c2cc(C(=O)NCCc3ccccn3)ccc21 (stereo not given) |  | inconclusive: 126 µM [inhibitor, partial curve, poor fit] |  |
| CC(C)c1ccc(NC(=O)N2CCc3[nH]c4ccc(F)cc4c3C2)cc1 |  | inconclusive: 50.1 µM [inhibitor, partial curve, poor fit] |  |
| COc1ccccc1CC(=O)NCc1nnc2ccc(-c3ccc(C)cc3)nn12 |  | inconclusive: 89.1 µM [inhibitor, single point] |  |
| COCCNC(=O)CCCN1C(=O)COc2ccc(C(=O)COc3ccc(C)cc3OC)cc21 | inactive: -21.6% |  |  |
| Cc1ccc(OC2(C(=O)O)CCN(Cc3ccc(CO)o3)CC2)cc1 | inactive: 1.49% |  |  |
| COCCN1CCCCCC(O)c2cc(C(=O)N(C)Cc3cccnc3)ccc21 (stereo not given) |  | inconclusive: 56.2 µM [inhibitor, partial curve, poor fit] |  |
| O=C(c1ccc(C(F)(F)F)cc1)N1CCCC(c2nn(-c3ccccn3)c(=O)[nH]2)C1 (stereo not given) | inactive: -0.177% |  |  |
| CCOC(=O)[C@H]1C[C@]2(CCCCNC2=O)N(C(=O)/C=C/c2ccccc2)[C@H]1c1ccco1 |  | inconclusive: 79.4 µM [inhibitor, single point] |  |
| CNc1cccnc1OC1CCN(S(=O)(=O)c2ccc3c(c2)CCC3)C1 (stereo not given) |  | inconclusive: 50.1 µM [inhibitor, partial curve, poor fit] |  |
| Cc1cnc(CCNC(=O)NCC(C)C)n1C1CCCCCC1 | inactive: -2.6% |  |  |
| COc1ccc(C(=O)N2CCN3C(=O)N(Cc4ccc(C)cc4)C[C@H]3C2)cc1 |  | inconclusive: 79.4 µM [inhibitor, partial curve] |  |
| Cc1nn(-c2ccccc2)c2c1C(C)N(CC1CN([S+](=O)([O-])c3cccc(C(F)(F)F)c3)C1)C2=O (stereo not given) |  | inconclusive: 50.1 µM [inhibitor, partial curve] |  |
| Cn1cc(-c2ccc(Cl)cc2)cc1C(=O)O |  | inconclusive: 50.1 µM [inhibitor, partial curve] |  |
| c1ccc(CNC[C@H]2Cn3c(-c4ccc5c(c4)OCCO5)cnc3CO2)cc1 |  | inconclusive: 112 µM [inhibitor, partial curve, poor fit] |  |
| CCCCNC(=O)[C@@H]1CCCC[C@@H]1C(=O)NCc1c(C)nn(CC)c1C |  | inconclusive: 31.6 µM [inhibitor, partial curve, poor fit] |  |
| COc1cccc(NC(=O)N[C@H]2C[C@@H](c3nc(C)no3)N(C)C2)c1 | inactive: -11.9% [at 172 µM] |  |  |
| Cc1cccc(Cn2c(-c3ccc(F)cc3)nc(C)c(CCO)c2=O)c1 |  | inconclusive: 89.1 µM [inhibitor, single point] |  |
| O=C(NC1CCC1)C1CCCN1C(=O)c1cccc(-c2cccnc2)c1 (stereo not given) |  |  | inactive |
| CNC(=O)[C@@H](c1ccccc1OC)N1CCC[C@H]1C(=O)N1CCN(C)CC1 |  |  | inactive |
| COC(=O)[C@@H]1Cc2c([nH]c3ccccc23)[C@H]2C[C@@H](NCCNC(C)=O)C[C@@H](c3ccc(-c4ccccc4)cc3)N21 |  | active: 39.8 µM |  |

| Compound | activity change, negative = cytotoxicity | Potency | outcome |
| --- | --- | --- | --- |
| CC(C)c1nnc(C2CN(C(=O)Cc3ccccc3Cl)CC23CCOCC3)o1 (stereo not given) | inactive: -23.7% |  |  |
| Cc1cc(C)c(CNC(=O)c2nc(-c3ccccc3C#N)cc3c2ccn3C(C)C)c(=O)[nH]1 |  | inconclusive: 50.1 µM [inhibitor, partial curve, poor fit] |  |
| COc1ccc2[nH]c3c(c2c1)CCNC31CCN(C(=O)Cn2c(=O)oc3ccccc32)CC1 |  | inconclusive: 28.2 µM [inhibitor, partial curve, poor fit] |  |
| CC(C)CC(=O)N1CCCCCC1c1nc(-c2ccncc2)no1 (stereo not given) |  | inconclusive: 89.1 µM [inhibitor, single point] |  |
| COCCn1ncc(N2CCC(NC(=O)c3ccc4c(c3)OCO4)CC2)cc1=O |  |  | inactive |
| Cc1onc(-c2cnn(C)c2NCCc2ccccc2)c1C(=O)N1CCC(F)(F)CC1 |  | inconclusive: 100 µM [inhibitor, partial curve] |  |
| CN1CCCCCC(O)c2cc(C(=O)NCCc3c[nH]c4ccccc34)ccc21 (stereo not given) |  | inconclusive: 50.1 µM [inhibitor, partial curve, poor fit] |  |
| O=C1NCCCCCCN(Cc2ccncc2)[C@@H]2CN(Cc3ccccn3)CC[C@@H]12 |  | inconclusive: 89.1 µM [inhibitor, single point] |  |
| CC(C)(C)C(=O)N[C@H]1CO[C@H]2[C@@H]1OC[C@@H]2Nc1nccc(-c2ccc(-c3ccccc3)cc2)n1 |  | inconclusive: 39.8 µM [inhibitor, partial curve] |  |
| O=C(c1ccc2c(c1)OCCN(c1cccc(OC(F)(F)F)c1)C2)N1CCOCC1 |  | inconclusive: 79.4 µM [inhibitor, partial curve] |  |
| CC(C)(C)c1cc(C[C@@H]2C[C@H](NC3CCOCC3)C2(C)C)no1 |  | inconclusive: 79.4 µM [inhibitor, partial curve, poor fit] |  |
| COC(=O)[C@]1(C)N[C@H](c2cccnc2N2CCOCC2)[C@@H]2C(=O)N(C)C(=O)[C@@H]21 |  | inconclusive: 25.1 µM [inhibitor, single point] |  |
| COC(=O)C1=C(C)N=C2SC=C(CC(=O)NCc3ccccc3)N2C1c1ccccc1F (stereo not given) |  | inconclusive: 56.2 µM [inhibitor, partial curve, poor fit] |  |
| COc1ccc(OC)c(CN2CCCn3nc(C)c(-c4ccccc4C(C)C)c32)c1 |  | active: 63.1 µM |  |
| COCCNC(=O)[C@H]1C[C@H](Oc2cccnc2)CN1C(=O)NC1CCCC1 |  |  | inactive |
| O=C1CN(C(=O)OCc2ccccc2)CC(O)CN1Cc1ccc2c(c1)OCO2 (stereo not given) | inactive: -25.9% |  |  |
| COc1ccc(CN2C[C@H]3CN(Cc4ccc(NC(C)=O)cc4)CCN3C2=O)cc1 |  | active: 89.1 µM |  |
| Oc1ccccc1CN1CCOC[C@H]1c1ncc(-c2ccccc2)[nH]1 |  | inconclusive: 50.1 µM [inhibitor, partial curve, poor fit] |  |
| Fc1ccccc1-c1noc(-c2nc(-c3cnccn3)no2)n1 | inactive: 3.94% |  |  |
| COc1ccc(NC(=O)[C@@H]2C[C@@H](c3ccc(F)cc3)N(CCOc3ccccc3)C2)cn1 |  | active: 39.8 µM |  |
| COc1ccccc1CN1CC[C@@H]2OCC(=O)N(Cc3c[nH]c4ccccc34)[C@H]2CC1 |  | inconclusive: 100 µM [inhibitor, partial curve] |  |
